# Experimental data as given in PubChem BioAssay AID624418 (National Center for Advancing Translational Sciences (NCATS), 2012).
# In all, about 410,000 compounds went through this assay and about 530 (0.13%) were called active. The inconclusive results got no clear call from the source; some entries with a clear call stand among them for comparison. Calls follow the shape of the dose curve; as a rule, active = well fitted inhibition curve with a large enough effect; inconclusive = small, poorly fitted or top-dose-only effect, or another doubt; inactive = no such curve, though single readings can be large or run the other way. Where the call is inconclusive, the potency comes from a doubtful curve fit.
# Assay: qHTS of GLP-1 Receptor Inverse Agonists: Cytotox Screen
# Conditions: HEK293 cAMP-luciferase reporter cells, luminescence, 24 h; activity change, negative = inhibition: at 38.3 µM (top of the series) unless noted
# How it was run: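 Compound-treated cells are incubated 24 hr at 37 deg C under 5% CO2 after a 12 hour attachment period, then luciferase detection reagent is added and luminescence is measured following 12 min at room temperature; lowered signal indicates toxicity.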
# % is scaled to controls: 0 for no effect and ±100 for the full control effect; potency is read from the fitted curve at half-maximal effect.
SMILES,Potency,"activity change, negative = inhibition"
CCC(C)NS(=O)(=O)c1ccc(S(=O)(=O)N(CC(=O)Nc2ccccc2)Cc2ccco2)cc1 (configuration not stated),"inconclusive: 0.562 µM [inhibitor, full curve, poor fit]",–
CCN1CCN(c2ccc(S(=O)(=O)N3CCCCC3)cc2NC(=O)c2ccc([N+](=O)[O-])o2)CC1,"inconclusive: 28.2 µM [inhibitor, single point]",–
O=c1[nH]c(N/N=C/c2cc3c(cc2[N+](=O)[O-])OCO3)nc2ccccc12,–,inactive: -7.66%
O=c1c2ccccc2nc2n1CCO2,–,inactive: 16.9%
CCOC(=O)c1sc(=S)n(C)c1NC(=O)c1ccccc1,–,inactive: 17%
COc1ccc(NC(=O)c2ccc(-c3nc(CSc4ccccc4)c(C)o3)cc2)c(OC)c1,–,inactive: 7.55%
CCCC(=O)OC(C(=O)Nc1cc(C(F)(F)F)ccc1Cl)c1ccccc1 (configuration not stated),–,inactive: 1.22%
CC1CCCN(C(=O)Cc2cn(Cc3cccc(Cl)c3)c3ccccc23)C1 (configuration not stated),–,inactive: -5.63%
Cn1c(=O)c2c(-c3ccccc3)n3c(c2n(C)c1=O)C(c1cccc([N+](=O)[O-])c1)Nc1ccccc1-3 (configuration not stated),"inconclusive: 1 µM [inhibitor, full curve, poor fit]",–
O=C(Nc1ccc(Cl)cc1C(=O)N1CCCC1)c1cccc([N+](=O)[O-])c1,–,inactive: -10.5%
NC(=S)N/N=C/c1cn(CCC(=O)O)nc1-c1cccc(Br)c1,"inconclusive: 5.01 µM [inhibitor, partial curve, poor fit]",–
COc1ccc(CNC(=O)[C@H](C)NC(=O)C2CCN(C(=O)[C@@H](N)Cc3ccccc3)CC2)cc1,"inconclusive: 8.91 µM [inhibitor, partial curve]",–
Cc1oc(-c2ccccc2)nc1Cn1c(=O)cc(-c2ccccc2)c2c(C)nn(C)c21,–,inactive: 7.91%
COCCN(C(=O)CSc1nnc(-c2ccccc2F)n1C)c1c(N)n(Cc2ccccc2)c(=O)[nH]c1=O,–,inactive: -12%
CCn1c(=O)c2cc(C(=O)NCCc3ccc(OC)c(OC)c3)sc2c2ccccc21,–,inactive: 0.162%
O=C(c1ccccc1)N1CCC(c2nc3c(nnn3Cc3ccccc3Cl)c(=O)[nH]2)CC1,"inconclusive: 2.51 µM [inhibitor, full curve, poor fit]",–
Cn1c(=O)cc(OCC(=O)N2CCCc3ccccc32)c2ccccc21,"inconclusive: 1.58 µM [inhibitor, full curve, poor fit]",–
Cc1ccccc1NC(=O)CSc1nnc(CNC(=O)c2ccc3c(c2)OCO3)n1C,"inconclusive: 14.1 µM [inhibitor, single point]",–
CCCOC(=O)c1cccc(Nc2nc(C(=O)OCC)nc3ccccc23)c1,–,inactive: -28.1%
CC(C)CN(C(=O)COC(=O)c1cccnc1Cl)c1c(N)n(Cc2ccccc2)c(=O)[nH]c1=O,–,inactive: -9.51%
O=C1Cc2c([nH]c3ccc([N+](=O)[O-])cc23)-c2ccccc2N1,"inconclusive: 1.12 µM [inhibitor, full curve, poor fit]",–
COc1ccc(CCNC(=O)c2ccc(-c3ccc([N+](=O)[O-])cc3Cl)o2)cc1,"inconclusive: 11.2 µM [inhibitor, single point]",–
Brc1ccccc1OCCCN1CCCCCC1,"inconclusive: 28.2 µM [inhibitor, single point]",–

SMILES,Potency,"activity change, negative = inhibition"
CCCCCCCCNS(=O)(=O)CCNC1CC1,–,inactive: -0.451%
O=C(Nc1nc(-c2ccco2)c(-c2ccco2)s1)c1cnccn1,"inconclusive: 31.6 µM [inhibitor, single point]",–
O=C(Nc1ccccc1N1CCCC1)c1ccco1,–,inactive: 1.06%
Cc1ccc(C(=O)c2cc([N+](=O)[O-])ccc2N2CCOCC2)c(C)c1,"inconclusive: 0.891 µM [inhibitor, full curve, poor fit]",–
CCOC(=O)c1c(C)[nH]c(C)c1S(=O)(=O)N1CCCC(C(=O)Nc2ccc(OC)c(OC)c2)C1 (configuration not stated),–,inactive: 2.23%
COc1ccc(-c2cc(C(=O)N3CCN(c4ccccc4O)CC3)c3ccccc3n2)cc1OC,"inconclusive: 20 µM [inhibitor, single point]",–
COc1ccc(OCC(O)Cn2ccnc2C)cc1 (configuration not stated),–,inactive: -15.8%
O=[N+]([O-])c1ccc2cccnc2c1,–,inactive: -1.89%
CC(C)(C)c1ccc(OCCC(=O)Nc2cccc(S(=O)(=O)N3CCCC3)c2)cc1,"inconclusive: 28.2 µM [inhibitor, single point]",–
O=C1C=CC(=O)C(C2=C3C(=O)N(CCc4ccccc4)CC(=O)N3CCC2)=C1,"inconclusive: 14.1 µM [inhibitor, single point]",–
O=C(COC(=O)c1cc([N+](=O)[O-])ccc1N1CCOCC1)NCCc1ccccc1,"inconclusive: 3.98 µM [inhibitor, full curve]",–
O=c1c2c(C(F)(F)F)cc(C(F)(F)F)nc2[nH]n1-c1ccccc1,"inconclusive: 22.4 µM [inhibitor, partial curve, poor fit]",–
COCCNC(=O)CCn1c(=O)[nH]c2cc(OC)c(OC)cc2c1=O,–,inactive: -3.59%
CCN1C(=O)[C@@H]2[C@@H](c3ccc(-c4cc(C(C)=O)cs4)cc3)N3CCC[C@@]3(C(=O)OC)[C@@H]2C1=O,"inconclusive: 7.94 µM [inhibitor, partial curve]",–
COc1cc(NC(=S)Nc2ccccn2)c(OC)cc1Cl,"inconclusive: 12.6 µM [inhibitor, partial curve, poor fit]",–
NC(c1csc(NC(=O)Nc2cccc(C(F)(F)F)c2)n1)C1CCCCC1 (configuration not stated),"inconclusive: 15.8 µM [inhibitor, single point]",–
COc1ccc(-c2csc(NC(=O)c3ccc(OCC(=O)N4CCOCC4)c(OC)c3)n2)cc1,"inconclusive: 12.6 µM [inhibitor, single point]",–
CN(C)CCNc1nc2sc3c(c2c(=O)n1CCc1ccccc1)CCCCC3,"inconclusive: 28.2 µM [inhibitor, single point]",–
Cc1ccc(SCC(=O)Nc2ccc3oc(-c4ccc(F)cc4)nc3c2)cc1,–,inactive: -8.51%
O=C(COc1ccccc1Cl)N1CCN(c2ccc([N+](=O)[O-])c(N3CCOCC3)c2)CC1,"inconclusive: 28.2 µM [inhibitor, single point]",–
O=C(NC1CCN(C(=S)NCc2ccco2)CC1)C12CC3CC(CC(C3)C1)C2,–,inactive: -17.6%
Cc1cccc(NCc2ccc(O)c3ncccc23)c1C,"inconclusive: 8.91 µM [inhibitor, partial curve]",–
COc1cccc(/C=N/NC(=S)NC2CC3CCC2C3)c1OC (configuration not stated),"inconclusive: 15.8 µM [inhibitor, single point]",–

SMILES,Potency,"activity change, negative = inhibition"
Cc1cc(C)cc(NC(=O)CN2CCN(CCN=CC3=C(O)CC(c4ccc(Cl)cc4)CC3=O)CC2)c1 (configuration not stated),"inconclusive: 22.4 µM [inhibitor, single point]",–
Cc1ccc(C(=O)O/N=C/c2c(N3CCOCC3)n(C)c3ccccc23)cc1,"inconclusive: 1.41 µM [inhibitor, full curve, poor fit]",–
CCOc1cc(CNCCCN2CCOCC2)ccc1OCC(=O)Nc1cccc2ccccc12,"inconclusive: 28.2 µM [inhibitor, single point]",–
CCOC(=O)c1c(-c2ccc(OC)cc2)csc1/N=C/C1C(=O)CCCC1=O,"inconclusive: 17.8 µM [inhibitor, single point]",–
CCN(CC)C(=O)COC(=O)c1cc(-c2ccc(OC)cc2)nc2ccccc12,"inconclusive: 8.91 µM [inhibitor, single point]",–
COc1cc(C(=O)OCC(=O)N2CCCCC2C)cc(NC(=O)c2cccs2)c1OC (configuration not stated),"inconclusive: 22.4 µM [inhibitor, single point]",–
CCS(=O)(=O)N1CCN(S(=O)(=O)c2ccccc2)CC1,–,inactive: -6.57%
COc1ccc2oc(=O)cc(CN3CCN(C(=O)c4ccccc4Br)CC3)c2c1,"inconclusive: 0.316 µM [inhibitor, full curve, poor fit]",–
O=[N+]([O-])c1ccc(Nc2ccccc2F)nc1,"inconclusive: 10 µM [inhibitor, partial curve, poor fit]",–
Nc1cc(=O)[nH]c(SCC(=O)N2N=C(c3ccc(Cl)cc3)CC2c2ccco2)n1 (configuration not stated),"inconclusive: 28.2 µM [inhibitor, single point]",–
CCCN1CCN(CCCNC(=O)c2cc3c(s2)-c2ccccc2OC3)CC1,"inconclusive: 28.2 µM [inhibitor, single point]",–
COCCn1c(C)cc(O)c(C(c2ccccc2Cl)N2CCCCC2)c1=O (configuration not stated),–,inactive: 4.44%
c1ccc(C(c2nnnn2Cc2cccs2)N2CCN(C3CCCC3)CC2)cc1 (configuration not stated),"inconclusive: 31.6 µM [inhibitor, single point]",–
COc1ccccc1CCNC(=O)C(=O)NCC(c1cccnc1)N1CCN(c2ccccc2)CC1 (configuration not stated),–,inactive: -4.35%
Cn1c(CS(=O)Cc2c(Cl)cccc2Cl)nnc1SCc1c(Cl)cccc1Cl (configuration not stated),"inconclusive: 10 µM [inhibitor, single point]",–
Cc1cc(NC(=O)c2c(F)cccc2F)n(-c2nc3ccccc3[nH]2)n1,"inconclusive: 28.2 µM [inhibitor, single point]",–
CCOc1ccccc1CNC(=O)c1cc2occc2n1C,–,inactive: 7.22%
COc1ccc(CNC(=O)c2nn(-c3ccccc3)cc2OC)cc1,"inconclusive: 2.51 µM [inhibitor, partial curve, poor fit]",–
CCC(=O)N1CCN(c2ccc(NC(=O)c3ccc([N+](=O)[O-])o3)cc2)CC1,"inconclusive: 7.94 µM [inhibitor, partial curve, poor fit]",–
Cc1ccc(S(=O)(=O)N(C(=O)c2ccncc2)c2ccc(OC(=O)c3ccncc3)c3ccccc23)cc1,"inconclusive: 28.2 µM [inhibitor, single point]",–
CCOc1ccc(NC(=S)NCCCn2ccnc2)cc1,–,inactive: -19.4%
